PubChem BioAssay AID1347417 (National Center for Advancing Translational Sciences (NCATS), 2020)
The whole screen tested about 120,000 compounds, of which about 5,300 (4.4%) were called active. Inconclusive results, whose numbers are uncertain, are shown with a selection of clear calls. Calls come from the whole dose curve; as a rule, active = well fitted inhibition curve with a large enough effect; inconclusive = small, poorly fitted or top-dose-only effect; inactive = no such curve, though single readings can be large or run the other way. A potency beside an inconclusive call is a rough fit, not a confirmed value.

experiment: qHTS Primary assay for Inhibitors of Plasmodium falciparum Dd2 growth in vitro; note: nearly all actives have a fitted effect of over 65% in size; settings: P. falciparum Dd2 growth, SYBR Green, 72 h; series mostly up to 28.9 µM
Procedure, shortened: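 Infected erythrocytes (Dd2, 0.3% parasitemia, 2.5% hematocrit final) are added to compound in RPMI-1640/Albumax II medium, grown 72 h at 37C in low oxygen, then lysed with saponin/Triton-X containing SYBR Green and read by fluorescence.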
Potency is the fitted concentration of half-maximal effect; tags give direction and shape of the fitted curve.

Structure (SMILES)	Potency
Cc1nn(C)c(C)c1S(=O)(=O)N(CC(=O)Nc1ccc(F)cc1F)c1ccc(C(C)C)cc1	inconclusive: 11.2 µM [inhibitor, single point]
CN1c2cccnc2CNCC[C@H]1CO	inactive
CSc1cccc(NC(=O)NC[C@H]2C[C@@H]3CCN2C[C@@H]3CN(C)c2ccccc2)c1	active: 8.91 µM
O=C(NCC1CN(C(=O)Cc2cccc(OC(F)(F)F)c2)CC12CN(c1ccccc1)C2)c1ccccc1 (stereo not given)	inconclusive: 1.12 µM [inhibitor, partial curve, poor fit]
COc1ccccc1OCC(=O)NC1CC(=O)N(Cc2ccccc2Cl)C1 (stereo not given)	inactive
O=C(Cn1nc(Cc2cccnc2)c2ccccc2c1=O)Nc1ccc(F)c(Cl)c1	inconclusive: 8.91 µM [inhibitor, single point]
COc1ccc(C(=O)NCC(c2ccc(Cl)cc2)N2CCCCC2)cc1 (stereo not given)	inactive
CCC(C(=O)Nc1cc(C(F)(F)F)ccc1Cl)n1nc(C)c2sc3ccccc3c2c1=O (stereo not given)	inconclusive: 10 µM [inhibitor, single point]
COc1ccc(-n2nc(C(=O)NCCc3ccc(OC)c(OC)c3)c3c4ccccc4n(C)c3c2=O)cc1	active: 3.16 µM
CC(C)C1=NOC2(CCN(Cc3ccc(C(F)(F)F)cc3)C2)C1 (stereo not given)	inconclusive: 12.6 µM [inhibitor, partial curve]
CCC(Sc1nnc2c3ccccc3n(CC)c2n1)C(=O)Nc1ccc(NC(C)=O)cc1 (stereo not given)	inconclusive: 14.1 µM [inhibitor, partial curve, poor fit]
CCCOc1cccc(C2c3c(oc4ccc(F)cc4c3=O)C(=O)N2CCc2ccc(OC)cc2)c1 (stereo not given)	inconclusive: 3.55 µM [inhibitor, partial curve]
Nc1nc(CC(=O)N2CCCC(CNC(=O)c3ccc(F)cc3)C2)cc(=O)[nH]1 (stereo not given)	inactive
COc1cccc(C2C(C(=O)Nc3ccccc3OC)=C(C)Nc3nc(-c4ccco4)nn32)c1 (stereo not given)	inconclusive: 11.2 µM [inhibitor, single point]
O=C(CCC1CCN(S(=O)(=O)c2ccc(F)cc2)CC1)N1CCc2ccccc2C1	inactive
Cc1c(C(=O)N2CCCCCC2)c(S(=O)(=O)Nc2cccc(C#N)c2)c(C)n1C	inconclusive: 10 µM [inhibitor, partial curve, poor fit]
O=c1[nH]nc2n1CCN(S(=O)(=O)c1ccc(F)cc1F)C2	inactive
O=C1CC(c2ccccc2)N(C(=O)CNC(=O)C2(c3ccccc3)CC2)CCCCCN1 (stereo not given)	inactive
CN(CC1CCOCC1)S(=O)(=O)c1cccc(C(F)(F)F)c1	inactive
COc1ccc(-c2noc(-c3cccn3CC(=O)Nc3cccc(C#N)c3)n2)cc1F	inconclusive: 3.98 µM [inhibitor, single point]
CCOC(=O)c1[nH]c2c(c1Cc1ccccc1C)C(=O)CC(c1ccccc1)C2 (stereo not given)	active: 8.91 µM
CCOc1ccc(-c2nnc(SCC(=O)Nc3ccc(C)cc3C)o2)cc1	inactive
COc1ccc(-c2cc3ccc(O)c(CN4CCCC(C)C4)c3oc2=O)cc1OC (stereo not given)	active: 4.47 µM

Structure (SMILES)	Potency
COc1cc(Cl)ccc1C(=O)N1CCC(Oc2ccc(C(=O)N(C)C)cn2)CC1	inactive
Cc1[nH]c2c(F)cccc2c1CC(=O)N1CCCC2(CC1)CN(C)C(=O)O2 (stereo not given)	inactive
COc1ccc(OC)c(NC(=O)C2CCc3nc(N4CCN(C(C)=O)CC4)sc3C2)c1 (stereo not given)	inconclusive: 3.16 µM [inhibitor, single point]
CCCCNC(=O)CSc1nc2cc3c(cc2c(=O)n1Cc1ccc(C(=O)NCCc2ccc(OC)c(OC)c2)cc1)OCO3	inactive
CN(c1ccccc1)c1cc(=O)c2ccnc(-c3ccncc3)c2o1	inconclusive: 1.12 µM [inhibitor, full curve, poor fit]
Cn1c(=O)c(=O)n(C)c2cc(NS(=O)(=O)c3ccc(Br)cc3)c(Cl)cc21	inconclusive: 14.1 µM [inhibitor, partial curve, poor fit]
CCc1nnc([C@@H]2CC(F)(F)CN2Cc2cccn2C)o1	inconclusive: 1.12 µM [inhibitor, full curve, poor fit]
COc1ccc(C(=O)N2CCCN(c3cc(-c4ccc(Br)cc4)[nH]n3)CC2)cc1F	inconclusive: 7.94 µM [inhibitor, partial curve, poor fit]
CCc1ccc(-n2nc(CO)c(C(=O)NCc3ccccc3Cl)n2)cc1	inactive
Cc1ccc(-n2c(/C=C\c3ccc(F)cc3)nc3ccccc3c2=O)cc1Cl	inactive
Cc1occc1C(=O)N[C@@H]1CN(c2ccncn2)C[C@H]1CN(C)C	inactive
CCn1cc(CN2CCC(N3CC(OCC4CC4)C34CCCCC4)CC2)cn1 (stereo not given)	active: 1.41 µM
Cc1ccc([S+](=O)([O-])NC2CCCN(c3nc4ncccc4o3)C2)cc1 (stereo not given)	inconclusive: 0.355 µM [inhibitor, full curve]
COc1ccc(S(=O)(=O)N(CCc2ccccc2)CC(=O)NCc2ccccc2)cc1	inactive
COc1ccc(OC)c(S(=O)(=O)N[C@H]2CO[C@H]3[C@@H]2OC[C@H]3OC(=O)Nc2ccc(C(C)=O)cc2)c1	inconclusive: 11.2 µM [inhibitor, single point]
O=C(Cc1ccccn1)N1CCC(c2nn(-c3ccccc3)c(=O)[nH]2)CC1	inactive
Cc1ncc2n1C(=O)N(C1CCN(Cc3ccncc3)CC1)C2	inactive
Cn1cnc(S(=O)(=O)N2CCCC(C(=O)NCc3ccc(F)cc3)CCNC(=O)CC2)c1 (stereo not given)	inactive
CCOC(=O)C1CCN(c2nc3c(S(=O)(=O)c4ccc(Br)cc4)nnn3c3ccsc23)CC1	inconclusive: 17.8 µM [inhibitor, single point]
CC(C)n1cnnc1CC1CCN(C(=O)Nc2ccc3c(c2)OCCO3)CC1	inconclusive: 10 µM [inhibitor, single point]
COc1ccc(C(=O)NCCn2cc(SCc3cccc(F)c3)c3ccccc32)cc1OC	inconclusive: 17.8 µM [inhibitor, single point]
COc1ccc(N2CCN(c3nc(C(=O)NCc4cccc(C)c4)cs3)CC2)cc1	active: 3.16 µM
